# About 14,000 (4.5%) of roughly 310,000 compounds showed an effect of 50% or more. The effect is printed as a negative number. The list shows a part of the results.
# Target: human ether-à-go-go-related gene (hERG) potassium channel (human, UniProt Q12809)
# Assay: primary screen, population patch clamp on CHO cells stably expressing hERG
# 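Also: peak tail current of the secondary pulse compared with the same well before compound.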
# Sequence of human ether-à-go-go-related gene (hERG) potassium channel (Q12809 whole entry, looked up): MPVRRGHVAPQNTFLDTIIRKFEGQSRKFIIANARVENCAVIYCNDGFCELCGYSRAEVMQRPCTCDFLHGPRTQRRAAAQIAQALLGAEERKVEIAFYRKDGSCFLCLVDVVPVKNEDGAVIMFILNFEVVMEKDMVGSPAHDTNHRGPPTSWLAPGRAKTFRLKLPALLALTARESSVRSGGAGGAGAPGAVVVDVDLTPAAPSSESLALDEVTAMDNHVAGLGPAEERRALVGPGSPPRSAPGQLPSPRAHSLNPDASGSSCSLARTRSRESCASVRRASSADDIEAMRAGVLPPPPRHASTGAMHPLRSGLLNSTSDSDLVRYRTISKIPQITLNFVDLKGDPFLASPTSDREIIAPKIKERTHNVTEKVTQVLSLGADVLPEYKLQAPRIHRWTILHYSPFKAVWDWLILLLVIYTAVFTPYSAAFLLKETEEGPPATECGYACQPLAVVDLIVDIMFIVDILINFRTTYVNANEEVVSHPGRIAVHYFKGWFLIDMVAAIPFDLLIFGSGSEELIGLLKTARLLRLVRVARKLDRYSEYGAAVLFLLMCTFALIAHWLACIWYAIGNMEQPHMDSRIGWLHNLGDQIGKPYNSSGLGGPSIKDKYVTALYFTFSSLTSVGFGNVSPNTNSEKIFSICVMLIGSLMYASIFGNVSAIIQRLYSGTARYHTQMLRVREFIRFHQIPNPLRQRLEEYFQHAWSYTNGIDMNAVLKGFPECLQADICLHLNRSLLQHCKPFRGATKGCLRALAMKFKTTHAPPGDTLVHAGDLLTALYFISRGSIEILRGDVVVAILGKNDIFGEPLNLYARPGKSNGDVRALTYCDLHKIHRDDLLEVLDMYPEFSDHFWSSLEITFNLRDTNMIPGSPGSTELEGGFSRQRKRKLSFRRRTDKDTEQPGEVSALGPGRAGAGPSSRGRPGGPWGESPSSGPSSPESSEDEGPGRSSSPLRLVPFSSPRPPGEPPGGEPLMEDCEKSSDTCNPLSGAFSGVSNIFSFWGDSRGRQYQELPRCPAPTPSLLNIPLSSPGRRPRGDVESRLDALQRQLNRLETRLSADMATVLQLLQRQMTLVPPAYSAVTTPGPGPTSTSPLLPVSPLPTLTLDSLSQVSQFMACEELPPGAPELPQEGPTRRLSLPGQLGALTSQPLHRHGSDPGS
row,Compound,"hERG current change (%, negative = inhibition) at 10uM [%]"
1,O=C(CC1S/C(=N/N=C2CCCCCC2)NC1=O)Nc1ccc(Br)cc1F (centres unmarked),-10.5
2,Cl.O=C(CN1CCOCC1)NC1C2CC3CC(C2)CC1C3 (centres unmarked),3.87
3,Cc1cc(C)cc(NC(=O)CN2CCc3cc4c(cc3C2C)OCCCO4)c1 (centres unmarked),3.67
4,Cc1cc(C)c(NC(=O)c2cnn(C)c2)c(C)c1,-3.05
5,Cn1c(=O)c2sccc2n2c(CCCC(=O)Nc3ccc(F)cc3F)nnc12,24.9
6,O=C(CCSc1ccc(F)cc1)NNC(=O)c1ccccc1Cl,-2.07
7,COc1ccccc1/C=N\Nc1cc(C)nc(-n2nc(C)cc2C)n1,4.17
8,CCCNC(=O)c1oc2ccc3c(c2c1C)C(O)CC(C)(C)O3 (centres unmarked),3.32
9,COc1cccc(C=Nc2ccccc2C(=O)Nc2nccs2)c1OC,4.39
10,COc1cccc(CNC(=O)CCCN2C(=O)C(c3ccccc3)Oc3cccnc32)c1OC (centres unmarked),16.4
11,O=C(N1CCCCC1)C1(S(=O)(=O)c2ccccc2)CC=CC1,-4.51
12,O=C(NC1CCCCC1)C1CCCN(S(=O)(=O)c2cccs2)C1 (centres unmarked),11.3
13,CN1C(=O)[C@@H]2[C@@H]3C[C@@H]([C@H]4ON=C(c5ccc(Cl)cc5Cl)[C@@H]34)[C@@H]2C1=O,-28.6
14,Cc1cccc(NC(=O)c2ccc(COc3ccc(Cl)cc3Cl)o2)n1,17.8
15,O=C(/C=C/c1ccc(Cl)cc1)Nn1c(-c2cccs2)nc2ccccc2c1=O,16.9
16,O=C(Nc1ccc(N2CCCCC2)c(C(=O)O)c1)c1ccco1,3.38
17,Cc1cc(C(=O)OCC(=O)c2cccc([N+](=O)[O-])c2)c2ccccc2n1,6.56
18,C=CCn1c(C2CC(=O)N(c3ccc(C)cc3)C2)nc2ccccc21 (centres unmarked),-58.4
19,Cc1ccc(OCC(=O)O/N=C(\N)c2cccc([N+](=O)[O-])c2)cc1C,-0.145
20,Cc1ccc2nc(N/C(=N/S(=O)(=O)c3ccc(F)cc3)c3ccccc3)sc2c1,33.5
21,COc1ccc(OC)c(N(C(=O)c2snc(C(N)=O)c2N)C(C(=O)NCC2CCCO2)c2ccc3ncccc3c2)c1 (centres unmarked),14.4
22,O=C(Cn1c(=O)oc2cccnc21)Nc1ccc(C(F)(F)F)cc1,-4.91
23,COC(=O)c1ccc(N2C(=O)CC(N3CCN(C(=O)c4ccco4)CC3)C2=O)cc1 (centres unmarked),-21.2
